The whole screen tested about 5,400 compounds, of which about 190 (3.5%) showed an effect of 50% or more. This is one part of the list.

The experiment concerns Vero-E6. Put plainly: primary screen, phospholipidosis by LipidTOX staining; higher = more effect of the substance. The conditions noted are these: 10 µM. On the procedure:
To measure drug-induced PLD in Vero-E6 cells, we used the HCS LipidTOX Red Phospholipidosis Detection Reagent (Invitrogen, #H34351), which is non-toxic to cell growth and remains well retained after aldehyde fixation. In this setup, compounds (at 10 μM concentration) and controls (amiodarone: 10 μM concentration; DMSO: 0.1 v/v %) were added to clear-bottom, 384-well plates (PhenoPlate 384-well, black, optically clear flat bottom, tissue-culture treated, Revvity #6057302) using the Echo Liquid Handler (Labcyte).
In the case of `CN1[C@@H]2CC[C@H]1C[C@@H](OC(=O)c1c[nH]c3ccccc13)C2.CN1[C@@H]2CC[C@H]1C[C@H](OC(=O)c1c[nH]c3ccccc13)C2`, the result_ITMP is 19.1%.

`FC(F)c1nc2ccccc2n1-c1nc(N2CCOCC2)nc(N2CCOCC2)n1`: the result_ITMP is given as -0.79%.

With `O=C1C2CC3CC1CC(O)(C3)C2`, the result_ITMP was -9.98%.

Turning to `C[C@H]1CN(C[C@H](Cc2ccccc2)C(=O)NCC(=O)O)CC[C@@]1(C)c1cccc(O)c1`, the result_ITMP was -1.66%.

As to `CC(C)[C@](O)(c1ccc2cc(OC(F)F)c(OC(F)F)cc2c1)c1c[nH]nn1`, the result_ITMP came out at 0.61%.

For `c1cc2c(cc1C1CCCCC1)c1c3n2CCNC3CCC1` (stereo not drawn), the result_ITMP was found to be 84.2%.

For `COc1ccccc1S(=O)(=O)Nc1ccc2c(c1)CN(C)C(=O)N2`, the result_ITMP is on record as 26.8%.

For the molecule `CC1CC(OC(=O)C(O)c2ccccc2)CC(C)(C)N1C` (stereo not drawn), the result_ITMP is listed as -10.3%.

Regarding `OC[C@@H](O)[C@@H](O)CO`, the result_ITMP is listed as -7.96%.

Consider `CCN1C[C@]2(OC(=O)c3ccccc3NC(C)=O)CC[C@H](OC)[C@]34C1[C@H](C[C@H]23)[C@@]1(O)C[C@H](OC)[C@H]2C[C@@H]4[C@]1(O)[C@H]2OC`, for which the result_ITMP worked out at 0%.

On to `Cc1cc(NCCO)nc(-c2ccc(Br)cc2)n1`, for which the result_ITMP is -1.67%.

`COc1ccc(O)c(C(C)(C)C)c1`: the result_ITMP was -3.96%.

Take `CCCC[C@H](NC(C)=O)C(=O)N[C@H]1CC(=O)NCCCC[C@@H](C(=O)O)NC(=O)[C@H](Cc2c[nH]c3ccccc23)NC(=O)[C@H](CCCNC(=N)N)NC(=O)[C@@H](Cc2ccccc2)NC(=O)[C@H](Cc2cnc[nH]2)NC1=O`: the result_ITMP is recorded as -3.41%.

In the case of `CCOC(=O)C12CC1/C(=N\O)c1ccccc1O2` (stereo not drawn), the result_ITMP is 0.73%.

On to `C=C[C@H]1C[N@]2CC[C@H]1C[C@@H]2[C@@H](OC(=O)OCC)c1ccnc2ccc(OC)cc12`, for which the result_ITMP is 6.16%.

On to `N=C(N)SCc1ccc(B(O)O)cc1`, for which the result_ITMP is on record as -0.1%.

Turning to `CC1(C)O[C@@H]2C[C@H]3[C@@H]4CCC5=CC(=O)C=C[C@]5(C)[C@@]4(F)[C@@H](O)C[C@]3(C)[C@]2(C(=O)CO)O1`, the result_ITMP is -4.54%.

On to `CC1(C)[C@H]2CC[C@@]1(C)[C@H](O)[C@@H]2O`, for which the result_ITMP is recorded as -3.19%.

For `COc1ccc(-n2c(SCc3nc(-c4ccc(C)cc4)no3)nnc2-c2ccncc2)cc1`, the result_ITMP is listed as -6.01%.

As to `N=C(N)SCCc1c[nH]cn1`, the result_ITMP is 2.68%.

In the case of `CCCCCCCCCCCCCCCCCCO`, the result_ITMP is -3.7%.

Turning to `OC1(c2ccc(Cl)c(C(F)(F)F)c2)CCN(CCCC(c2ccc(F)cc2)c2ccc(F)cc2)CC1`, the result_ITMP turned out to be 36.2%.

In the case of `C[C@@H]1C[C@H]2[C@@H]3CCC4=CC(=O)C=C[C@]4(C)[C@@]3(F)[C@@H](O)C[C@]2(C)[C@@]1(O)C(=O)CO`, the result_ITMP is -3.69%.

Turning to `c1ccc(CN2CCC3(CCc4ccccc43)CC2)cc1`, the result_ITMP is on record as 2.5%.

For `CCOC(=O)C1=C(C)NC(c2ccccc2)=C(C(=O)OCc2ccc([N+](=O)[O-])cc2)C1C#Cc1ccccc1` (stereo not drawn), the result_ITMP is -1.26%.

For the molecule `CC(CC(c1ccccc1)c1ccccc1)NC(C)(C)C` (stereo not drawn), the result_ITMP is given as 49.7%.

As for `Nc1c(CC(=O)[O-])cccc1C(=O)c1ccccc1`, the result_ITMP was -2.23%.

In the case of `CC(C)Oc1ccc(C(=O)N[C@H](CNC(=O)CN(C)C)Cc2ccc(-c3cn4cccc([C@H](C)O)c4n3)cc2)cc1Cl`, the result_ITMP is reported as 33%.

Regarding `O=C(O)COC(=O)Cc1ccccc1Nc1c(Cl)cccc1Cl`, the result_ITMP worked out at 0.06%.

With `COc1cc2nccc(Oc3ccc(NC(=O)C4(C(=O)Nc5ccc(F)cc5)CC4)cc3)c2cc1OC`, the result_ITMP worked out at 0.07%.

Consider `CCN(CC)Cc1nccn1-c1ccc([N+](=O)[O-])cc1C(=O)c1ccccc1Cl`, for which the result_ITMP was determined as 7.66%.

Regarding `Fc1cccc(/C=N/N=C/c2cccc(F)c2)c1`, the result_ITMP is 0.14%.

For `O=C(O)/C=C/c1ccc(Cn2ccnc2)cc1`, the result_ITMP is recorded as -0.75%.

Regarding `Cc1nc(N)sc1CCN`, the result_ITMP is -2.17%.

As for `CNC(=O)c1cc(COc2nnc(Nc3ccc(Cl)cc3)c3ccoc23)ccn1`, the result_ITMP is listed as -0.18%.

Regarding `C[CH2][Hg][S]c1ccccc1C(=O)[O-]`, the result_ITMP amounted to 6.82%.

`Cc1ccc(N2CCN(CCC3NC(=O)c4ccccc43)CC2)cc1C` (stereo not drawn): the result_ITMP is listed as -1.46%.

`Cc1cc(C)cc(C(=O)NOCCCCCC(=O)NO)c1`: the result_ITMP is recorded as -7.42%.

For the molecule `CCn1nc(C(=O)O)c(=O)c2cc3c(cc21)OCO3`, the result_ITMP is on record as -0.04%.

Turning to `COc1cc2c(cc1OC)C(c1ccc(N)cc1)=NNC(=O)C2`, the result_ITMP was 1.02%.

Regarding `CCCCN1CCC(CCC(=O)c2cc(Cl)c(N)cc2OC)CC1`, the result_ITMP amounted to 5.01%.

For the molecule `Cc1cc(/C=C/c2ccc3cc(N(C)C)ccc3[n+]2C)c(C)n1-c1ccccc1`, the result_ITMP is recorded as -6.02%.

`COCCOC(=O)C1=C(C)NC(C)=C(C(=O)OC/C=C/c2ccccc2)C1c1cccc([N+](=O)[O-])c1` (stereo not drawn): the result_ITMP was -3.49%.

For `C=C[C@H]1C[N@]2CC[C@H]1C[C@@H]2[C@H](O)c1ccnc2ccccc12`, the result_ITMP is reported as 0.13%.

In the case of `O=S1(=O)OC(c2ccc(O)cc2)(c2ccc(O)cc2)c2ccccc21`, the result_ITMP is -2.78%.

In the case of `OC12C3C4CC5C6C4C1C6C(C53)N2CCc1cccc(F)c1` (stereo not drawn), the result_ITMP is recorded as 4.29%.

Consider `CC(C)(Oc1ccc(C(=O)c2ccc(Cl)cc2)cc1)C(=O)O`, for which the result_ITMP is listed as -3.84%.

On to `O=C1c2ccccc2C(Cc2ccnc(F)c2)(Cc2ccnc(F)c2)c2ccccc21`, for which the result_ITMP worked out at 4.43%.

`Cc1cc([C@@H](C)Nc2ccccc2C(=O)O)c2nc(N3CCOCC3)cc(=O)n2c1`: the result_ITMP was -1.81%.

As to `CC(C)(N)c1nc(-c2ccc(OC(F)(F)F)cc2)c[nH]1`, the result_ITMP was determined as 42.8%.

As for `CCCN(CCC)C(=O)C1=Cc2ccc(-c3ccc(C(=O)N4CCCC4)cc3)cc2N=C(N)C1`, the result_ITMP was 9.89%.

As to `O=C(NCCO[N+](=O)[O-])c1cccnc1`, the result_ITMP is listed as 4.11%.

For the molecule `CC(C)(Cc1ccc2ccccc2c1)NC[C@@H](O)COc1cccc(Cl)c1C#N`, the result_ITMP is recorded as -10.6%.

For the molecule `O=C(c1cn(Cc2cncn2Cc2ccc(Br)cc2)cc1-c1cccc2ccccc12)N1CCOCC1`, the result_ITMP is -0.05%.

On to `CN(C)CCOc1ccc(/C(=C(/CCCl)c2ccccc2)c2ccccc2)cc1`, for which the result_ITMP came to 20.4%.

For `CC(C(=O)O)c1ccc(N2Cc3ccccc3C2=O)cc1` (stereo not drawn), the result_ITMP was -3.93%.

On to `Cc1cc(Nc2ncnc3ccc(-c4ccc(CNCCS(C)(=O)=O)o4)cc23)ccc1Oc1ccn2ncnc2c1`, for which the result_ITMP was found to be 48.5%.

Values taken from publication PMC13083723 (Patterns, 2026).
